Measurements from PubChem BioAssay AID504832 (National Center for Advancing Translational Sciences (NCATS), 2011).
Out of some 310,000 compounds screened, about 18,000 (5.8%) were called active. The shares of active, inactive and inconclusive entries below differ from those in the screen. Calls come from the whole dose curve; as a rule, active = well fitted inhibition curve with a large enough effect; inconclusive = small, poorly fitted or top-dose-only effect, or another doubt; inactive = no such curve, though single readings can be large or run the other way. Potencies of inconclusive entries are left out as doubtful fits.
% is set by controls: 0 for no effect and ±100 for the full control effect; potency is the fitted concentration of half-maximal effect; tags give direction and shape of the fitted curve.

Assay: Primary qHTS for delayed death inhibitors of the malarial parasite plastid, 48 hour incubation
Settings: P. falciparum luciferase growth in erythrocytes; series mostly up to 28.7 µM
How it was run: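 Firefly luciferase activity from engineered P. falciparum reports growth; inhibitors lower the luminescent signal. Cultures contained 2% hematocrit erythrocytes at 0.1% final parasitemia.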
For `COc1ccc(NC(=O)CCc2nc3ccccc3s2)c(OC)c1`, the Potency was inconclusive [inhibitor, single point]. In the case of `O=C(CCl)N(C1CCCC1)C1CCS(=O)(=O)C1` (stereo not given), the Potency was inconclusive [inhibitor, single point]. With `Clc1cccc(Cl)c1Cn1cnc2c(N3CCCCCC3)ncnc21` the Potency was active: 10.4 µM. For `Cn1c(=O)c2nc(-c3ccccc3)oc2c2ccccc21`, the Potency was inconclusive [inhibitor, partial curve, poor fit]. With `CC(C)C[C@@H]1NC(=O)[C@H](C(C)C)NC(=O)c2cc([N+](=O)[O-])cc(I)c2NCC[C@@H](C(N)=O)NC1=O` the Potency was inconclusive [inhibitor, partial curve]. With `CCC(=O)N1CCN(c2ccc(NC(=S)NC(=O)c3cccc([N+](=O)[O-])c3)cc2)CC1` the Potency was “inactive”. For `c1ccc(CNc2nc(-c3ccccn3)nc3ccccc23)cc1`, the Potency was active: 1.47 µM. With `O=C(CC1Nc2ccccc2NC1=O)NCCc1ccccc1` (stereo not given) the Potency was inconclusive [inhibitor, single point]. With `COc1ccc(N2CCN(C(=O)c3cccc(S(=O)(=O)N4CCOCC4)c3)CC2)cc1` the Potency was “inactive”. In the case of `Cc1ccc(C(C(=O)NCc2ccco2)N(C(=O)CNC(=O)c2cccs2)c2c(C)cc(C)cc2C)cc1` (stereo not given), the Potency was inconclusive [inhibitor, full curve]. With `CCOC(=O)[C@H]1[C@H]2COc3ccc(C)cc3[C@@H]2N2C(=O)CN(Cc3ccco3)C(=O)[C@@]12C` the Potency was inconclusive [inhibitor, single point]. For `Cc1ccc2nc3c(c(C(=O)OC4CCOC4=O)c2c1)CCCC3` (stereo not given), the Potency was inconclusive [inhibitor, single point]. With `COc1ccc(-c2c(C)n([O-])c3c([n+]2=O)CCCCC3)cc1OC` the activity change, negative = inhibition was inactive: -40% [at 1.15 µM]. With `O=C(Cc1cc(C(=O)O)c2ccccc2n1)Nc1ccccc1` the Potency was inconclusive [inhibitor, single point]. In the case of `N#Cc1c(/N=C/c2ccc(-c3ccc(C(=O)O)c(Cl)c3)o2)sc2c1CCCC2`, the Potency was “inactive”. With `CCOc1cc2c(cc1OCC)CN(CC(=O)Nc1ccccc1C(=O)NC1CC1)CC2` the Potency was inconclusive [inhibitor, partial curve]. With `C=CCc1ccc(OCCCNCc2ccccc2)c(OC)c1` the Potency was inconclusive [inhibitor, single point]. For `C[C@@H](NC(=O)c1[nH]cnc1C(=O)Nc1ccon1)c1ccccc1`, the Potency was inconclusive [inhibitor, single point]. With `COc1cnc(-c2ccccn2)nc1Sc1cccc(Cl)c1` the Potency was inconclusive [inhibitor, full curve]. With `Cc1oc(-c2cccc(Cl)c2)nc1CN1CCCC(C(=O)NCCCN2CCOCC2)C1` (stereo not given) the Potency was active: 11.7 µM. With `O=C(Nc1c[nH]c(=O)[nH]c1=O)c1ccccc1Cl` the Potency was “inactive”. For `CCC(=O)Nc1nc(C)nc(C)c1C(C)=O`, the Potency was “inactive”. For `NNC(=O)c1ccc2c(c1)S(=O)(=O)NNC2=O`, the Potency was inconclusive [inhibitor, single point]. In the case of `CCCCC1CCC(c2nc(-c3cccnc3)no2)CC1` (stereo not given), the Potency was inconclusive [inhibitor, single point]. For `O=[N+]([O-])c1cccc(S(=O)(=O)NCCNS(=O)(=O)c2cccc([N+](=O)[O-])c2)c1`, the Potency was inconclusive [inhibitor, single point]. For `CCOC(=O)C1CCN(Cc2ccc(O)c3ncccc23)CC1`, the Potency was active: 10.4 µM. With `CCN=c1scc(C)n1/N=C/c1ccc(O)c(O)c1O` the Potency was inconclusive [inhibitor, partial curve]. With `Cc1cccc(NC(=O)c2nc[nH]c2C(=O)NCCCCCNC(=O)OC(C)(C)C)c1` the Potency was active: 2.62 µM. For `CCC(C(=O)N1CCN(c2cccc(Cl)c2)CC1)c1ccccc1` (stereo not given), the Potency was inconclusive [inhibitor, single point]. In the case of `CCOc1ccc(C(=O)NNC2CC(=O)N(Cc3ccc(Cl)cc3)C2=O)cc1OC` (stereo not given), the Potency was inconclusive [inhibitor, partial curve]. With `O=C(O)c1cccc(NC(=O)c2ccc(COc3ccc(Cl)cc3)cc2)c1` the Potency was “inactive”. In the case of `NCCOc1ccccc1OCCN`, the Potency was inconclusive [inhibitor, single point]. In the case of `CCOc1ccc(S(=O)(=O)N2CCCCC2)cc1NC(=O)Cc1cccc(C(F)(F)F)c1`, the Potency was inconclusive [inhibitor, partial curve, poor fit]. For `COc1ccc(CCn2c(-c3cc([N+](=O)[O-])cc([N+](=O)[O-])c3)nc3nc4ccccc4nc32)cc1`, the Potency was inconclusive [inhibitor, partial curve, poor fit]. For `CC(=O)Nc1ccc(NC(=O)C/C(C)=N/NC(=O)c2cccc3ccccc23)cc1`, the Potency was “inactive”. In the case of `COc1ccc(C2=NNC(c3cccnc3)=Nc3ccc(OC)cc32)cc1`, the Potency was “inactive”. With `COc1ccc(-c2nc(CSCC(=O)N3CCC4(CC3)OCCO4)c(C)o2)cc1OC` the Potency was inconclusive [inhibitor, full curve, poor fit]. With `COc1ccc(C(=O)c2cnc3ccccc3c2-c2ccccc2)cc1` the Potency was inconclusive [inhibitor, partial curve]. In the case of `O=C(O)c1sc2cccc(Cl)c2c1Cl`, the Potency was inconclusive [inhibitor, partial curve]. In the case of `CCCCCCCn1c(=N)n(CC(O)c2ccco2)c2ccccc21` (stereo not given), the Potency was active: 4.15 µM. For `CCn1ccc(=N)cc1`, the Potency was inconclusive [inhibitor, partial curve, poor fit]. With `Nc1ccc2nc(CCCO)[nH]c2c1` the Potency was inconclusive [inhibitor, single point]. With `C[n+]1cc(-c2ccccc2)n2c1CCCCC2` the Potency was inconclusive [inhibitor, full curve]. For `CCCc1nnc(NC(=O)c2ccc(S(=O)(=O)N(C)c3ccccc3OC)cc2)s1`, the Potency was active: 10.4 µM. For `Cc1ccsc1C=Nc1ccc(O)cc1`, the Potency was inconclusive [inhibitor, single point]. In the case of `Cc1ccc(C)c(-c2nnc(NC(=O)Cc3ccc(F)cc3)o2)c1`, the Potency was inconclusive [inhibitor, single point]. In the case of `CCn1c(-c2cc(-c3cc(C)ccc3C)nc3ccccc23)n[nH]c1=S`, the Potency was inconclusive [inhibitor, full curve]. In the case of `CCOc1ccc(C2=CS/C(=C(\C#N)c3nnc4n3CCCCC4)N2CC)cc1`, the Potency was inconclusive [inhibitor, single point]. For `CN(C)S(=O)(=O)Oc1ccc(Cl)cc1C(=O)Nc1cccc(C(F)(F)F)c1`, the Potency was inconclusive [inhibitor, single point]. With `Cc1cccc(N=Cc2cc(Br)cc(Cl)c2O)c1` the Potency was inconclusive [inhibitor, partial curve, poor fit]. For `O=C(COC(=O)c1ccc([N+](=O)[O-])cc1)Nc1ccc(Cl)cn1`, the Potency was inconclusive [inhibitor, single point]. With `COc1ccc(CCN(C)C(=O)C2CCCN(Cc3ccc(OC)c(OC)c3)C2)cc1OC` (stereo not given) the Potency was inconclusive [inhibitor, partial curve]. For `O=C(CSc1ccccc1)NCc1ccc(F)cc1`, the Potency was “inactive”. With `COc1cc(OC)c(NC(=O)c2cc(S(=O)(=O)N3CCOCC3)cn2C)cc1Cl` the Potency was inconclusive [inhibitor, single point]. For `CC(=O)OCCn1c2nc(=O)[nH]c(=O)c-2nc2cc(C)c(C)cc21`, the Potency was inconclusive [inhibitor, single point]. With `CCOc1ccc2[nH]c(=O)c(C(c3nnnn3Cc3ccco3)N3CCCC(C)C3)cc2c1` (stereo not given) the Potency was inconclusive [inhibitor, partial curve, poor fit]. With `CCn1c(SCC(=O)O)nnc1C1CCCCC1` the Potency was “inactive”. For `Cc1ccc(NS(=O)(=O)c2ccc(N/N=C/c3ccncc3)c([N+](=O)[O-])c2)c(C)c1`, the Potency was inconclusive [inhibitor, single point]. With `CCc1ccc(OCCOCC(O)CNC(C)(C)C)cc1` (stereo not given) the Potency was inconclusive [inhibitor, single point]. With `CN(C)S(=O)(=O)N1CCC(Oc2ccc(C(=O)NCc3cnn(C)c3)cc2)CC1` the Potency was “inactive”. In the case of `Cc1cc(=O)oc2cc(OCc3ccc(C(=O)OCC(=O)NC4CCS(=O)(=O)C4)cc3)ccc12` (stereo not given), the Potency was “inactive”. In the case of `CCCCC1(C)Nc2ccccc2-c2nc3ccccc3n21` (stereo not given), the Potency was active: 2.08 µM. In the case of `O=S(=O)(NC1CCCCC1N1CCN(c2ccc(F)cc2)CC1)c1ccccc1` (stereo not given), the Potency was inconclusive [inhibitor, single point]. In the case of `COc1ccc(-c2cn(Cc3ccc(C)cc3)nn2)cc1`, the Potency was “inactive”. In the case of `COc1cc(/C=C2\NC(=S)NC2=O)ccc1OCc1cccc(C(=O)O)c1`, the Potency was “inactive”. For `CCN(CC(=O)Nc1cc(Cl)ccc1C)C(=O)c1ccc2c(c1)NC(=O)C(C)S2` (stereo not given), the Potency was inconclusive [inhibitor, single point]. With `COc1cccc(/C(=N/O)C2CC2c2ccc(Cl)cc2)c1` (stereo not given) the Potency was inconclusive [inhibitor, partial curve, poor fit]. For `CCOC(=O)c1sc2cccc(Cl)c2c1N`, the Potency was “inactive”. In the case of `COC(=O)c1ccc(CNC(=O)c2ccc(S(=O)(=O)N3CCCC(C)C3)cc2)cc1` (stereo not given), the Potency was active: 13.1 µM. For `Cc1cc(-c2ccccc2)nc(N(C)NC(=O)C(C)(C)C)c1S(C)(=O)=O`, the Potency was inconclusive [inhibitor, full curve, poor fit].
